Reference: article PMC10668032
The other results are listed elsewhere or left out. At the low end of the ranking the order means little.

These sequences were tested against SIX1-Q177R homeodomain (UniProt Q15475) (assay: universal protein binding microarray). Details: Universal all-10-mer PBM (8x60K, AMADID 030236), 300 nM GST-tagged protein, Alexa Fluor 488 anti-GST; buffer, salt, pH and temperature not stated; high values mean tight binding; most listed sequences are background and not binding sites; double strand, one strand shown.

Sequence	binding signal [E-score]
CTTCCCAA	-0.176
GGACGTAA	-0.0723
GTGCGGGA	0.146
TAGTTAAA	-0.042
CTCCCTTA	-0.0609
CCGCATAG	0.147
AGTATTAA	-0.00688
CTGTCATC	-0.096
AACTCCGG	0.161
ACCGGTTA	0.0294
ACTCTTAA	-0.062
AGTTAAGC	-0.0327
AGTCGCCG	0.00185
CTGGGAGA	-0.164
AGAGTTCC	-0.0111
TCTCTAAA	-0.0301
CCTGTGTC	0.229
CGCCGCTC	-0.0667
TCACCAAA	-0.107
ACAAAAAA	0.00886
GCAGTACA	0.11
GGCCAACC	-0.104
CGCTCGGA	0.033
CATAGAAC	0.00632
AACTGCAG	-0.12

Sequence	binding signal [E-score]
ACCCCTTG	0.237
GGGTTTTA	0.163
CTGCAAAG	-0.252
ATACGAGA	-0.152
GTACGCAA	-0.037
ATCCCATC	0.0454
ATCGATCC	0.0612
GAGAGCAA	-0.245
CCTTATGC	-0.143
CGCGCCTA	-0.144
ACGATCGG	-0.00809
CGTTCTAA	-0.0713
AGACATGG	-0.132
CATAGCCC	-0.207
CACGCCAG	0.178
CATGCCTC	-0.243
ATTTCGTA	-0.131
CGAGGAGC	-0.0561
AAATACTT	-0.223
ACACCCGT	0.471
CGGTTCTC	-0.101
AATGAGGT	-0.173
TAGCCCAA	-0.173
AGATTGAT	-0.0886
ATGAATGC	-0.131

Sequence	binding signal [E-score]
TCTTGGCA	-0.0612
AGTCCACC	0.0784
AACCGGTA	-0.145
TAACACGA	0.399
GCAAATTA	0.0462
GATCACAA	-0.0799
CATTTCTA	-0.24
CATAGAAA	-0.134
CTCAGAAG	-0.0727
AGCCTTGC	-0.24
AGGGATAG	-0.00179
CCGATTCC	-0.168
ATTGTTGA	0.107
CCTAGACA	0.199
AACCATGT	-0.105
GACACTAC	0.434
ACGGGTAG	0.153
CAGCGCAG	0.0298
CCCGAAGC	0.12
AGGAGATA	-0.0808
GGGGAGAA	-0.0683
GATGGTGA	-0.177
ACGCCCAT	0.112
CAGTGGTA	0.0072
AGCTCTCA	-0.0526

Sequence	binding signal [E-score]
CATTGCCG	-0.0863
ACACATAT	0.239
GCCCTACC	0.0917
CCTCAGCA	0.022
GTAGTTAA	0.146
AGGCCGGG	0.0289
ATTCATAG	-0.123
CGCCCCCA	0.166
AATCGGTG	0.317
CCCATGAA	0.068
TACTCCCA	0.16
GGCTTCAA	-0.161
GTCATCCA	0.0663
ATCATGTG	0.0343
CTCAGGCC	-0.119
AACGTGTA	0.353
CCCTAGCA	0.17
CTTCGGAA	-0.0623
ACCAACAG	0.137
GATTATGC	0.0684
AGCTCGTC	-0.197
AACACACA	0.262
AAGTCAGT	-0.0376
CCCCCGGA	0.263
CGAACTAA	-0.155

Sequence	binding signal [E-score]
ATCACTCG	0.0123
CTGGCTCC	-0.151
CGAGGCAC	-0.0452
ATTCCATC	-0.176
ACATTAGA	-0.153
CCAAGTGG	0.0372
GTGGAAAC	-0.158
AATAAGAT	-0.145
GTGTTTGA	0.35
AACATAAT	-0.249
AAGGTTGA	-0.201
AGTCCGAA	-0.169
CACTCCAG	0.225
CACAAGGA	0.0271
AGGGGATC	0.207
AGGGCACA	0.128
AATGGACT	-0.254
AGTTACTC	0.0169
CTGACCAC	-0.216
CTGGTGCA	0.234
ATTCGAAG	-0.23
TGATACAA	0.0915
GGGGGGAA	-0.0687
CATCGGGG	0.139
GTATCATA	0.29

Sequence	binding signal [E-score]
AAATAGTA	-0.0489
ATGAAATG	-0.167
AGCTAAGC	-0.256
CGATCTAG	-0.114
ACACGTTA	0.297
CAATCGGC	-0.266
AATTCCAT	-0.16
CAACAATG	0.212
GACCAAAC	-0.0383
AGCCATCC	-0.107
AAAGTGCT	-0.0967
CCGCAGGC	0.174
CCTCCAGG	0.0531
ATGCAGTA	-0.0516
CAATTGTA	-0.132
ACTCCCCA	0.163
AGGGGGTA	0.358
CGCTACAA	-0.269
CCGTATCC	0.122
CACACATC	0.0348
CCCTTACG	-0.0335
GAACACTC	0.374
CACCGACG	0.304
TAACTACA	0.239
CCTGTTAG	0.00577

Sequence	binding signal [E-score]
AGTCTCAC	-0.125
AATTTACC	0.0141
GTCGAATA	-0.0512
ACTAATGC	0.0774
ATGATTAA	-0.224
AATAGTAA	-0.278
ACATATGC	-0.117
AGTAGGAG	0.0738
ATGAACTA	-0.0948
CTGTAGCC	-0.102
CCGTGAGA	-0.109
CAGGCCTA	-0.0805
AGGCGTCC	-0.0248
ATTAGACA	0.0182
ATCGAATA	-0.0157
CAAGATTG	-0.0628
AGGTACAA	-0.156
GAGACCAC	-0.162
GAACTATC	-0.103
ATTGGAAC	0.0862
CATAACCA	-0.00413
AATCATAA	0.115
CAGTAGAA	-0.176
TACGTACA	0.18
GTATGGGA	0.0596

Sequence	binding signal [E-score]
CAAACGGC	-0.237
TGGGGCAA	-0.252
AAAACTCC	-0.0377
CGCATGGA	0.0866
CCGCCTAC	0.0564
AACAATGT	-0.12
CGTTCGGA	-0.057
AAAAGCCT	-0.343
AAGGAGGT	0.091
TGCCGAAA	-0.0602
CGGATCAC	0.174
ATGCTGCG	-0.0813
AGTCTGAT	-0.0468
TACGAAAA	-0.00785
TAGACGAA	-0.11
ACGAAACA	0.0241
GACAAAGA	0.00447
GCTTGTCC	-0.125
AGGTATAC	0.0967
CCAGGGGC	-0.0582
ATCAAGAC	0.0588
CAAGTCAC	-0.0776
CTATAGGC	-0.228
ATGGCCTA	-0.0818
GGAGGGAA	-0.117

Sequence	binding signal [E-score]
ATAATCAA	-0.0903
ACTCTTCA	-0.0456
CGTTGTAG	-0.0521
CGCTGCCG	-0.0806
ACCAGTGG	0.189
ATGGGAAG	-0.136
CCCAGAAA	0.137
CTTACCTC	-0.282
GATACTTA	0.0931
CAAGGCTA	-0.218
AGCATGAC	-0.012
CGTAGGTC	-0.15
AGATAACA	0.0446
AAATTTAT	-0.246
ACGAGCCT	0.0806
CGTCACGC	0.00816
ACAACATC	-0.322
CGTTCAAC	0.136
ACAGTGGT	0.0251
